The source of these data is the supplement of paper PMC10986608.

Structures are written as SMILES. This is one part of the list. Most values come without repeats; read them as rough.

This assay relates to Candida albicans DPL-15. The assay is described as follows: growth (OD600) after compound treatment (apparently relative to screen median) (relative growth (fraction; screen median 1.02)); DPL-15 is a caspofungin-resistant clinical isolate; higher = more fungal growth (less antifungal activity). Conditions: 25 µM; RPMI 1640; 48 h; 30 °C.
`COC(=O)[C@@H]1[C@@H](c2ccccc2)[C@]2(c3ccc(OC)cc3)Oc3cc(OC)cc(OC)c3[C@@]23NC(c2cccnc2)=N[C@@]13O`: the growth worked out at 1.21.

As to `O=CNCCc1ccc(O)c(O)c1`, the growth turned out to be 0.893.

On to `O=c1c(O)c(-c2ccc(N3CCOCC3)cc2)[nH]c2ccccc12`, for which the growth stood at 0.234.

Consider `COc1ccc(C2=C[C@@]3(c4ccc(OC)cc4)[C@@H]4C(=O)[C@](C)(O)[C@@H](C=C4C(C)C)[C@H]3C2=O)cc1`, for which the growth came to 1.07.

As for `CC(C)Cc1n[nH]c2c1C(c1cccc(C(F)(F)F)c1)N(CCN1CCCC1)C2=O` (stereo not given), the growth came to 1.07.

Regarding `C#CCC(C)(C)CNC(=O)CC1(CNC(=O)c2cccc(-c3ccccc3/C=N/NS(=O)(=O)c3ccc(C)cc3)c2)CCCCC1`, the growth was 1.04.

In the case of `COc1cc2c(cc1OC)[C@@H]1O[C@](CCN3C(=O)c4ccccc4C3=O)(C2)OC2=C1C(=O)CC(C)(C)C2`, the growth stood at 0.891.

With `Nc1c(-c2ccccn2)cnc2c(-c3ccc(Cl)cc3)cnn12`, the growth was determined as 1.11.

As for `COC(=O)[C@]1(C)CCC[C@@]2(C)[C@H]1CC=C1[C@@H](O)[C@](O)(C(C)C)CC[C@@H]12`, the growth was 0.933.

Take `C=CCOC(=O)c1c2n[nH]c1-c1cccc(c1)C(=O)NCC1(CCCCC1)CC(=O)NCCC2`: the growth was 1.13.

Turning to `COc1ccc(-c2oc(-c3ccc4c(c3)OCO4)c(CO)c2CO)cc1OC`, the growth is 1.06.

On to `CO[C@@H]1[C@H](O)CC[C@]2(O)CN(Cc3cccc4ccccc34)[C@@H](CC=C(C)C)[C@](C)(O)[C@@H]12`, for which the growth was 1.03.

With `C=CCN1C(=O)C2=C(C(CC(C)C)=NCCN2C)C1c1ccccc1` (stereo not given), the growth came out at 1.

As to `CCN1C(=O)N[C@@H](c2ccco2)C(C(=O)OC)=C1C`, the growth stood at 0.988.

Turning to `CC(C)CC1=NCCNC2=C1C(c1ccc(Br)cc1)NC2=O` (stereo not given), the growth was found to be 0.997.

For the compound `O=C1Nc2cc(F)ccc2C1(c1ccc2c(c1)CCO2)c1ccc2c(c1)CCO2`, the growth is 0.779.

In the case of `CC(=O)N[C@@H]1CCN(C(=O)c2c(O)cc(O)cc2Nc2ccnn2C)C1`, the growth stood at 1.07.

Regarding `CC(=O)OC[C@H]1O[C@H](C#Cc2ccccc2F)C=C[C@H]1OC(C)=O`, the growth is 0.862.

On to `CCc1ccccc1-n1nc2c(c1C(C)C)C(c1ccccc1)NC2=O` (stereo not given), for which the growth amounted to 1.07.

Turning to `CC1=NCCN(C)C2=C1C(c1ccc(F)cc1)N(c1ccccc1)C2=O` (stereo not given), the growth was determined as 1.04.

With `COc1ccc(Cn2nc(C3CC3)cc2Nc2cc(O)cc(O)c2C(=O)N2Cc3cn[nH]c3C2)cc1`, the growth came to 0.965.

Take `CC(C)(C)[Si](C)(C)OCC1=C(c2cc3c4c(ccc5c4c2OCO5)OCO3)C(=O)[C@@H]2O[C@]2(C)[C@@H]1O`: the growth is active: 0.0132.

As to `C=CC[C@@]12O[C@@H]1C1(OCCCO1)C(CO)=C(Br)C2=O`, the growth came to 0.936.

As to `COc1ccc([C@@H]2[C@@H](C(=O)NCC3CC3)[C@H](C(=O)NCC3CC3)[C@H]2c2ccc(OC)c(OC)c2OC)c(OC)c1OC`, the growth came to 1.36.

Take `CC1=NCCNC2=C1C(c1ccc(C)cc1)N(c1ccccc1)C2=O` (stereo not given): the growth was 0.888.

Turning to `COC(=O)C1=C(C)N(C)C(NCc2ccc3c(c2)OCO3)=NC1c1cccc(F)c1` (stereo not given), the growth amounted to 0.853.

On to `C=CCN1C(=O)C2=C(C(c3ccccc3)=NCC(C)(C)N2)C1c1ccc(Br)cc1` (stereo not given), for which the growth was found to be 1.05.

Take `CN(Cc1ccccc1)C(=O)c1c(O)cc(O)cc1CC(=O)c1ccccc1`: the growth was 0.926.

In the case of `CC(=O)C1=C2C=CCCN2C(=O)NC1c1cc(F)ccc1[N+](=O)[O-]` (stereo not given), the growth was 0.906.

In the case of `Cc1ccc(C2NC(=O)c3c2c(-c2ccccc2)nn3-c2cc(C)cc(C)c2)cc1` (stereo not given), the growth was 0.921.

In the case of `COc1ccc(CCN2C[C@@]3(O)CC[C@@H](O)[C@@H](OC)[C@@H]3[C@@](C)(O)[C@@H]2CC=C(C)C)cc1OC`, the growth stood at 1.09.

As for `COc1ccc(C[C@H]2COC(=O)[C@@H]2Cc2ccc(OC)cc2)cc1`, the growth came to 0.798.

Turning to `COc1ccc(-c2cnc3c(-c4ccncc4)cnn3c2N)cc1`, the growth was found to be 1.28.

As to `COc1cc(OC)c2c(c1)oc(=O)c1c(O)ccc(O)c12`, the growth stood at 1.05.

As for `Cn1nccc1Nc1cc(O)cc(O)c1C(=O)N1CC[C@H](F)C1`, the growth came out at 1.06.

As to `C=CCOC(=O)C1(C#CC(=C)C)CCCCC1=O` (stereo not given), the growth worked out at 1.06.

On to `C#CCC(C)(C)CNC(=O)[C@@H]1C[C@@H](O)CN1C(=O)c1cccc2cnnn12`, for which the growth stood at 1.06.

Consider `CC(C)c1c2c(nn1C)C(=O)N(Cc1ccccc1)C2c1cccc(C(F)(F)F)c1` (stereo not given), for which the growth was 0.953.

Regarding `COc1ccc(C2=C[C@@]3(c4ccc(OC)cc4)[C@@H]4C(=O)[C@](C)(O)[C@@H](C=C4C(C)(C)C)[C@H]3C2=O)cc1`, the growth came out at 1.15.

For the compound `COCn1c2ccccc2c2nnc(C(=O)c3ccccc3)nc21`, the growth came to 0.966.

As to `C=CC[C@]12CC(=C)C[C@](C)(C(=O)C(C(=O)OC)=C1C)C2=O`, the growth came out at 0.884.

As to `COc1ccc([C@@H]2[C@@H](C(=O)NC3CCCC3)[C@H](C(=O)NC3CCCC3)[C@H]2c2ccc(OC)c(OC)c2)cc1OC`, the growth was determined as 1.06.

For `CCc1ccccc1-n1nc(CC(C)C)c2c1C(=O)NC2c1ccc(C)cc1` (stereo not given), the growth is 1.08.

Turning to `C[C@H]1C=C(c2ccccc2)[C@]2(CCCO2)[C@@H]1c1ccccc1`, the growth is 1.02.

With `N#Cc1ccc(-c2[nH]c3cccc(F)c3c(=O)c2O)cc1`, the growth was 0.321.

As for `CC(=O)C1=C(C)N(Cc2ccc(F)cc2)C(=S)NC1c1cccc(Br)c1` (stereo not given), the growth came out at 0.867.

With `COc1ccc(C2NC(=O)N3CCC=CC3=C2C(C)=O)cc1F` (stereo not given), the growth worked out at 1.01.

With `COc1ccc(N2C(=O)C3=C(C(c4ccccc4)=NCC(C)(C)N3)C2c2ccc(F)cc2)cc1` (stereo not given), the growth is 0.902.

With `COc1ccc(N2C(=O)C3=C(C(C(C)C)=NCC(C)(C)N3)C2c2ccc3c(c2)OCO3)cc1` (stereo not given), the growth was determined as 1.07.

As to `COc1cc(OC)c2c(c1)O[C@@]1(c3ccc(Br)cc3)[C@H](c3ccccc3)c3c(nc(-c4ccccc4)[nH]c3=O)[C@@]21O`, the growth was determined as 1.01.

As to `CC(C)c1n[nH]c2c1C(c1ccc(Br)cc1)N(c1ccccc1)C2=O` (stereo not given), the growth is 0.864.

In the case of `COc1ccc([C@@]23Oc4cc(OC)cc(OC)c4[C@]2(O)[C@H](O)[C@H](C(=O)c2ccccc2OC)[C@H]3c2ccccc2)cc1`, the growth turned out to be 1.25.

Take `O=C(N1CC[C@@]2(Cc3occc(=O)c3O)c3ccccc3N[C@@H]12)C(F)(F)F`: the growth is 1.06.

Regarding `CC(C)c1nn(-c2ccccc2)c2c1C(c1ccc(F)cc1)NC2=O` (stereo not given), the growth came out at 1.13.

For `COc1cc(OC)c2c(=O)c(O)c(-c3ccc(C(F)(F)F)cc3)n(C)c2c1`, the growth is active: 0.0901.

Regarding `C=CCN1C(=O)C2=C(C(c3ccccc3)=NCCN2C)C1c1ccc(Br)cc1` (stereo not given), the growth is 0.942.

In the case of `O=C(c1c(O)cc(O)cc1Nc1ccnn1-c1ccccc1)N1Cc2cn[nH]c2C1`, the growth turned out to be 0.986.

Take `CC(=O)C1=C2C=CCCN2C(=O)NC1c1cccc(C(F)(F)F)c1` (stereo not given): the growth came out at 1.01.

On to `CC(C)NS(=O)(=O)OC[C@H]1O[C@@H](n2cnc3c(N(C(=O)OC(C)(C)C)C(=O)OC(C)(C)C)ncnc32)[C@@H]2OC(C)(C)O[C@@H]21`, for which the growth was found to be 0.858.

`CC(=O)OC[C@H]1O[C@H](c2ccccc2)C=C[C@@H]1OC(C)=O`: the growth is 1.01.

Turning to `CC#CCN1C(=O)N[C@@H](c2ccccc2)C(C(=O)OC)=C1C`, the growth was determined as 0.922.

In the case of `CN1CCCc2nc(-c3ccc(F)cc3)ccc21`, the growth turned out to be 0.922.

Turning to `CC1=C[C@@H](COc2ccccc2)O[C@@]2(C1)C(=O)N(Cc1ccccc1)c1ccccc12`, the growth was 0.936.

On to `C/C=C/C=C/C(=O)Nc1cccc2cccnc12`, for which the growth came out at 1.04.

Regarding `COc1ccccc1Cn1nc(C)c2c1C(=O)NC2c1cccc(C(F)(F)F)c1` (stereo not given), the growth worked out at 0.934.

As to `CCCCCOS(=O)(=O)Nc1ccccc1C#N`, the growth is 1.14.

With `C=CCN1C(=O)C2=C(C(C(C)C)=NCC(C)(C)N2)C1c1ccccc1` (stereo not given), the growth was 0.981.

As to `CC(C)Cc1n[nH]c2c1C(c1ccccc1Br)N(c1ccc(N(C)C)cc1)C2=O` (stereo not given), the growth is 0.885.

Regarding `COC(=O)C1=C(C)N(Cc2ccc(F)cc2)C(=S)NC1c1cccc(OC)c1` (stereo not given), the growth worked out at 0.881.

`C=CCN1C(=O)C2=C(C(C(C)C)=NCCN2C)C1c1ccc2c(c1)OCO2` (stereo not given): the growth was 0.998.

Take `Cc1ccccc1-c1cc(N)n(C)n1`: the growth was determined as 1.03.

Consider `C#CCC(C)(C)CNC(=O)CC1(CNC(=O)c2cccc(/C=N/NS(=O)(=O)c3ccc(C)cc3)c2)CCCCC1`, for which the growth worked out at 0.991.

As for `CC(=O)OC[C@H]1O[C@H](c2cccc(C(C)=O)c2)C=C[C@H]1OC(C)=O`, the growth came to 0.99.

As for `COc1ccc(-c2ccc3c(n2)CCCN3S(=O)(=O)c2ccc(OC)cc2)cc1`, the growth stood at 1.01.

In the case of `CC(C)CC1=NCCNC2=C1C(c1ccc3c(c1)OCO3)NC2=O` (stereo not given), the growth stood at 1.08.

As to `CC(=O)C1=C(C)N(Cc2ccccc2)C(=S)NC1c1ccc(Cl)cc1` (stereo not given), the growth worked out at 0.962.

With `COc1ccc(N2C(=O)C3=C(C(CC(C)C)=NCCN3)C2c2ccccc2)cc1` (stereo not given), the growth stood at 1.07.

`Cc1c2n[nH]c1-c1cccc(c1)C(=O)NCC1(CCCCC1)CC(=O)N[C@@H](c1ccccc1)COC2`: the growth was determined as 1.13.

For the compound `CC#CCN1C(=O)N(C(C)=O)C(c2ccccc2)C(C(=O)OC)=C1CCl` (stereo not given), the growth amounted to 1.24.

In the case of `COC(=O)C/C=C/[C@H](C)[C@@H](NC(=O)[C@H](Cc1ccccc1)NC(=O)OC(C)(C)C)c1cccc(Br)c1`, the growth was 0.968.
